Results from PMC7819943, “Rice protein-binding microarrays: a tool to detect cis-acting elements near promoter regions in rice”.
This is one part of the list.

biological target: T1, OsWOX13 (Oryza sativa, UniProt Q5QMM3 1-267); assay: protein-binding microarray (RPBM); PBS, 2% BSA, 51.3 ng/ul salmon testes DNA, 50 uM zinc acetate, 200 nM TF, 25 C, 1 h; high values mean tight binding; conditions: protein: recombinant; tags: N-terminal polyhistidine and DsRed monomer fusion (pET32a); label: CyDye5-dUTP incorporated in the synthesized complementary strand; 3' TTTTT single-stranded linker to array surface; dsDNA, one strand shown
T1 sequence: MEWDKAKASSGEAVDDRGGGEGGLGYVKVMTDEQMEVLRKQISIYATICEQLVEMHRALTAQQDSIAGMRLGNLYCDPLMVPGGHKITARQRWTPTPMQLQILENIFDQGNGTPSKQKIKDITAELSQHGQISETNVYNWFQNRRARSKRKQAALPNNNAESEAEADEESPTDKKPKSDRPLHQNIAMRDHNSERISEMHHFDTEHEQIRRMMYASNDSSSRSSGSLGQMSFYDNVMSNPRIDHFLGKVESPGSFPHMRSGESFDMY
Procedure, shortened: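 For the binding signal, per-feature fluorescence intensity was read in arbitrary units on an Axon 4000B scanner. Before scanning, a 2% BSA-blocked custom Agilent array made double-stranded with Cy5-dUTP was washed after 1 h at 25 °C with 200 nM protein and 50 µM zinc acetate. The proteins were Ni–NTA-purified transcription factors with N-terminal polyhistidine and DsRed fusions, expressed in E. coli BL21-CodonPlus.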

Sequence | binding signal
ACTTATATTCTTTAACTTATGATTGGAGGTATATACTATACGGAGTCACCTAGTGCAG | 5760 fluorescence intensity (a.u.)
ATCTAAATAATTGAAGTAGAAAAGTTTGAAAATCAGTTGTCGGAGTCACCTAGTGCAG | 9570 fluorescence intensity (a.u.)
CCCCATCTGTATTTTAAATTTATATCCGCCACTGATTGTACGGAGTCACCTAGTGCAG | 4240 fluorescence intensity (a.u.)
ATCAAGATTTGATGACTCAGTCTTTAGAAGTTGCTTATCACGGAGTCACCTAGTGCAG | 4350 fluorescence intensity (a.u.)
CTAAGATCATGATTTTAAGATTTAACTCCAATACGCAAAACGGAGTCACCTAGTGCAG | 3650 fluorescence intensity (a.u.)
GGTTCAAATTAACTTTTCAATCTTGGCTGTGTTTGGATCCCGGAGTCACCTAGTGCAG | 21400 fluorescence intensity (a.u.)
GAACATGATTGTGAATGAAAATGAGCTGCTAATAGGTCACCGGAGTCACCTAGTGCAG | 21300 fluorescence intensity (a.u.)
TATAGACTGATAAGATATATACAAGCAGCTTTGCTTTCCACGGAGTCACCTAGTGCAG | 5540 fluorescence intensity (a.u.)
GTAAAATGATGGAAAATGTAACGGTAGGGGCATGGAAGGGCGGAGTCACCTAGTGCAG | 6210 fluorescence intensity (a.u.)
GGTTGACTGCTCTCTGAAATTAATTTTATTCGTTTAGTTACGGAGTCACCTAGTGCAG | 30500 fluorescence intensity (a.u.)
TTAATTAGAGTTCAAATGAGAGTAAGAAATGACAGATAGGCGGAGTCACCTAGTGCAG | 6020 fluorescence intensity (a.u.)
CTAAATTTGTAATTGTAATGTACTACTTTAATCCTTCGTACGGAGTCACCTAGTGCAG | 53100 fluorescence intensity (a.u.)
ATACTTAATTTTGGGCTTTCCTATTTTCCGGCCATTTTACCGGAGTCACCTAGTGCAG | 7030 fluorescence intensity (a.u.)
GTTAATTACTTTTATGCTGCAAATGCACAATGAAGTAAAGCGGAGTCACCTAGTGCAG | 20600 fluorescence intensity (a.u.)
GCTTAATCGAATCAGCCATCTGATGGGCTTCGGCTGAAACCGGAGTCACCTAGTGCAG | 4270 fluorescence intensity (a.u.)
ATTATTGTTTTGCAATTTATAATAATCATCCATATGCATGCGGAGTCACCTAGTGCAG | 4650 fluorescence intensity (a.u.)
CTGATGACGACGGTTAATTGTATAATTTCACCGCGCCTAACGGAGTCACCTAGTGCAG | 48900 fluorescence intensity (a.u.)
AGATGATTTCTAGCGGTGGAAGGGTAGAATTGTAACTTCGCGGAGTCACCTAGTGCAG | 4290 fluorescence intensity (a.u.)
AGACTCTGACATGCAATCACCGAGCAAAGCCCAATATATACGGAGTCACCTAGTGCAG | 4640 fluorescence intensity (a.u.)
GAGTCTGTGATTAATGGGCAAATCATACTCACTCCATCCACGGAGTCACCTAGTGCAG | 20600 fluorescence intensity (a.u.)
ATAACTACAAATTAATCCATGATTAGTTGACTGTAATCAACGGAGTCACCTAGTGCAG | 26900 fluorescence intensity (a.u.)
ATTTAATTAGAATTTAATATGTTTTAATTCAATTTTCTCTCGGAGTCACCTAGTGCAG | 21400 fluorescence intensity (a.u.)
TCTGTCACATCGTTCCAATTTCAATCAAACTTTCAATTTTCGGAGTCACCTAGTGCAG | 4060 fluorescence intensity (a.u.)
GACCCTAATTCGTCGGAGATTGGGTTGTCGCCGGCACCAGCGGAGTCACCTAGTGCAG | 3820 fluorescence intensity (a.u.)
ACCTCAATTATAGCACTGCCTCTCCTCCAAGCTAGCAGCTCGGAGTCACCTAGTGCAG | 3440 fluorescence intensity (a.u.)
TTGTGACTTGACTTTGCCAATCTTAGTCTATTTTCTCGAGCGGAGTCACCTAGTGCAG | 5270 fluorescence intensity (a.u.)
GGCACTAATAAAATGCTAAATTAACTTCACATCGACAACACGGAGTCACCTAGTGCAG | 5970 fluorescence intensity (a.u.)

Sequence | binding signal
CGACCACTAATTAAGGGAGTCAATGTGAACTTATTCGTCCCGGAGTCACCTAGTGCAG | 13100 fluorescence intensity (a.u.)
GGTAATTGAGAATGAATTCCTCCTTTACTTTGCCTAAACACGGAGTCACCTAGTGCAG | 24300 fluorescence intensity (a.u.)
CATATACAAATTATGTAAAACATACGAAGCATCCTTTTGGCGGAGTCACCTAGTGCAG | 6740 fluorescence intensity (a.u.)
GAGATAATTTGATCTAAATATTTTGGTAAGCGTAGAAAGGCGGAGTCACCTAGTGCAG | 25700 fluorescence intensity (a.u.)
TGGAGTGACTGATCTTCTGTTTGTCAGTAATCAGTCAGTTCGGAGTCACCTAGTGCAG | 5170 fluorescence intensity (a.u.)
CAGTCTACAAATTTAGGCCAATTTCAAAATTTGTGTGGAGCGGAGTCACCTAGTGCAG | 4250 fluorescence intensity (a.u.)
TGACAAATTGCTTTAACTTTGATCAAGTTTGTAGAGAAAACGGAGTCACCTAGTGCAG | 4900 fluorescence intensity (a.u.)
CCTAATTAAAACTAACCTGAGTTGCTAGGCTTGGTGAAGGCGGAGTCACCTAGTGCAG | 25100 fluorescence intensity (a.u.)
ATGCTTATTAATTACCAACCTCAACTCTCAGTCTCTCTTTCGGAGTCACCTAGTGCAG | 5540 fluorescence intensity (a.u.)
TTTCTCTAATTATTATGGATTATATTATGGGAGTTTCTAGCGGAGTCACCTAGTGCAG | 14300 fluorescence intensity (a.u.)
ATCAATAGATAGATAGATAGATGTACACGCACGATCGACTCGGAGTCACCTAGTGCAG | 23500 fluorescence intensity (a.u.)
AAATTATGTAAATTATACTAGTTGACTTGAGCCTTATGTTCGGAGTCACCTAGTGCAG | 4000 fluorescence intensity (a.u.)
CTTAATGAGAAAAGATTAGGTCTCTCTAGCCATACGAGCACGGAGTCACCTAGTGCAG | 17100 fluorescence intensity (a.u.)
CGAGACAGTCCCAATTAAACCGATACGTCTGTAAACACAACGGAGTCACCTAGTGCAG | 5200 fluorescence intensity (a.u.)
AATTGATTTCTCTATAGACAAATAGGGAATGCCAGATTGACGGAGTCACCTAGTGCAG | 16200 fluorescence intensity (a.u.)
CTAAAGCTAAATTTTGATTTGTATGAGGAGCCTAACGATGCGGAGTCACCTAGTGCAG | 11700 fluorescence intensity (a.u.)
TCAATTTAAATTATTTCTTAAATGCAATTCTATTTATTAACGGAGTCACCTAGTGCAG | 13100 fluorescence intensity (a.u.)
AGGATCTAATTTAATTCGGTTTTACAAGTTGGAGCTTAAACGGAGTCACCTAGTGCAG | 3490 fluorescence intensity (a.u.)
ATTAACTGCATTTTCGTCGCATCCGGATTATGGAGCTCCACGGAGTCACCTAGTGCAG | 8210 fluorescence intensity (a.u.)
GAAAATTAGAGTTTAATTCTATTAAATATAGTGGATTGTACGGAGTCACCTAGTGCAG | 22500 fluorescence intensity (a.u.)
TTATAATTATTTTGGGACGGGTAGTACTGAACGTCATCTACGGAGTCACCTAGTGCAG | 12500 fluorescence intensity (a.u.)
TTGTTAATTACCGCGATTGATGTCGAGCTTGCATTTTGATCGGAGTCACCTAGTGCAG | 40900 fluorescence intensity (a.u.)
TATTCAATAATGATTTCCCCTGTATTATAGTTCTATTACACGGAGTCACCTAGTGCAG | 3840 fluorescence intensity (a.u.)
AACAGCTGATGAGTGATGATTGACAGACATCACACGCGGACGGAGTCACCTAGTGCAG | 57600 fluorescence intensity (a.u.)
ACAATATGATTAATATGACACGGGTAAGCACATAATCGGTCGGAGTCACCTAGTGCAG | 28200 fluorescence intensity (a.u.)
CACGCAGATTGACGCTCCTGGGATCAGTAATGCCCATGGTCGGAGTCACCTAGTGCAG | 28400 fluorescence intensity (a.u.)
ACAATGATTGGGTCTTAAGATTTTCTTTAATTATTCGACGCGGAGTCACCTAGTGCAG | 58300 fluorescence intensity (a.u.)
